Where “and” joins values, the source holds several entries; their conditions need not be identical. Equal values may be shown once. Hit rate of the full screen: of about 410,000 compounds, about 6,400 (1.6%) were called active. The inconclusive results got no clear call from the source; some entries with a clear call stand among them for comparison. The call rests on the fitted dose curve; in most records, active means well fitted inhibition curve with a large enough effect; inconclusive means small, poorly fitted or top-dose-only effect; inactive means no such curve, though single readings can be large or run the other way. A potency beside an inconclusive call is a rough fit, not a confirmed value.
The molecules below were run against Glucagon-like peptide 1 receptor (Homo sapiens) (UniProt P43220) (assay: qHTS of GLP-1 Receptor Inverse Agonists (Inhibition Mode)). Settings: HEK293 GLP-1R CRE-luciferase, luminescence, 24 h, GLP-1R form is constitutively active; series mostly up to 38.3 µM.
UniProt P43220, sequence (P43220 whole entry, looked up): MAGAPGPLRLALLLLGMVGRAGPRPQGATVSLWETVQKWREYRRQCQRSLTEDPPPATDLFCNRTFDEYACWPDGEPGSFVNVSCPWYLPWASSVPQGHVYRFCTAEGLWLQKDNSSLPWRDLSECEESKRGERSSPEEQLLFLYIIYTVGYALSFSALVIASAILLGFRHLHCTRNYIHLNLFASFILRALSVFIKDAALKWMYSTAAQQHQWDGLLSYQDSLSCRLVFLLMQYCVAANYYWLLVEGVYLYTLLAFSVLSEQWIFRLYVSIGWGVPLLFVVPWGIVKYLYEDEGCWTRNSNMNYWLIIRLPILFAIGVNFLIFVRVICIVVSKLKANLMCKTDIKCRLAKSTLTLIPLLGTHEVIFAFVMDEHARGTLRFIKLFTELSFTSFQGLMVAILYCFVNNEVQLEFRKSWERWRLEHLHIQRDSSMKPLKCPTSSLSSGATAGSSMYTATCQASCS
Procedure, shortened: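 HEK293 cells stably co-expressing a cAMP-responsive luciferase reporter and constitutively active GLP-1R were seeded, incubated 12 h, then exposed to compounds for 24 h at 37 C. Luminescence was read 12 min after detection reagent; inverse agonists lower signal.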
Further: nearly all actives have a fitted effect of over 55% in size.
Potency means the concentration at half of the fitted maximal effect; tags describe the fitted curve by direction and shape.

| Structure (SMILES) | Potency |
| --- | --- |
| CCOC(=O)N1CCN(c2nc3ccccc3nc2C(C#N)C(=O)NCCc2ccccc2)CC1 (stereo not drawn) | inactive |
| CN1CCC(OC(c2ccccc2)c2ccc(Cl)cc2)C1 (stereo not drawn) | active: 3.16 µM |
| C=CCOC(=O)C1=C[C@@H](c2ccc(Br)cc2)C[C@@H](OCc2ccc(CO)cc2)O1 | inconclusive: 12.6 µM [inhibitor, single point] |
| O=C(NCc1ccccc1)C1=C[C@H](C2CCCCC2)C[C@H](OCCCCO)O1 | inconclusive: 20 µM [inhibitor, single point] |
| Cc1ccc(C(=O)Nc2ccc3nc(SCC(=O)N4CCCc5ccccc54)sc3c2)cc1 | inactive |
| N#C/C(=C/c1ccc(-c2ccccc2[N+](=O)[O-])o1)C(=O)NCCN1CCCCC1 | inconclusive: 1 µM [inhibitor, full curve, poor fit] |
| CCOC(=O)c1cc2occc2n1CC(=O)NC1CCC(C)CC1 (stereo not drawn) | inconclusive: 28.2 µM [inhibitor, single point] |
| CC(=O)NC(NC(=S)N1CCCCCC1)C(Cl)(Cl)Cl (stereo not drawn) | inconclusive: 31.6 µM [inhibitor, single point] |
| N/C(=N\N=C\c1ccc2c(c1)OCO2)c1nonc1N | inconclusive: 10 µM [inhibitor, partial curve] |
| CCOC(=O)[C@H]1[C@H]2COc3ccccc3[C@@H]2N2C(=O)c3cc(Br)ccc3NC(=O)[C@@]12C | inconclusive: 10 µM [inhibitor, partial curve, poor fit] |
| O=C1C2CCCCC2C(=O)N1c1ccc(NC2CCCCC2)c([N+](=O)[O-])c1 (stereo not drawn) | inconclusive: 7.94 µM [inhibitor, partial curve, poor fit] |
| O=C(NCc1ccco1)/C(=C/c1cccc(C(F)(F)F)c1)c1nc2ccccc2[nH]1 | inconclusive: 31.6 µM [inhibitor, single point] |
| NC(=O)c1nc(-c2ccc(F)c(F)c2)nc2c1[nH]c(=O)n2-c1cccc(Cl)c1 | inactive |
| CCN1CCN(CCCNC(=O)c2cnn(-c3ccc(C)cc3C)c2C2CCN(C(=O)OC(C)(C)C)CC2)CC1 | inconclusive: 10 µM [inhibitor, single point] |
| O=C(c1ccco1)N1CCN(C(=O)c2cc3cc([N+](=O)[O-])ccc3oc2=O)CC1 | inactive |
| C=CCn1c(SCC(=O)NCC2CCCO2)nc2scc(-c3ccco3)c2c1=O (stereo not drawn) | inactive |
| CC(C)CN1C(=O)/C(=C(/C#N)C(=O)NC2CCCCC2)c2ccccc21 | inconclusive: 11.2 µM [inhibitor, partial curve, poor fit] |
| CCOc1ccc(OCc2ccc(C(=O)N3CCc4ccccc4C3)o2)cc1 | inconclusive: 28.2 µM [inhibitor, single point] |
| C=C(C)COc1ccc(-c2nc(N)ncc2-c2ccc(OC)c(OC)c2)c(O)c1 | inconclusive: 28.2 µM [inhibitor, single point] |
| CN(C)c1ccc(/C=C2\NC(=S)N(Cc3ccccc3)C2=O)cc1 | inconclusive: 7.94 µM [inhibitor, partial curve] |
| c1ccc2c(c1)C1=NCCN1c1ccccc1-2 | inconclusive: 6.31 µM [inhibitor, partial curve, poor fit] |

| Structure (SMILES) | Potency |
| --- | --- |
| Cc1ccc(NC(=O)C(C)OC(=O)Cc2c[nH]c3ccccc23)cc1 (stereo not drawn) | inconclusive: 11.2 µM [inhibitor, partial curve, poor fit] |
| Clc1ccc(CNc2nc(N3CCOCC3)nc(N3CCOCC3)n2)cc1 | inconclusive: 28.2 µM [inhibitor, single point] |
| COc1cccc(N2CCN(c3ncnc4c3cnn4-c3ccc(C)cc3C)CC2)c1 | inconclusive: 5.62 µM [inhibitor, partial curve, poor fit] |
| CCN1C(=NCc2cccc(Cl)c2)N[C@@H](c2cccc(F)c2)C(C(=O)OC)=C1C | inconclusive: 28.2 µM [inhibitor, single point] |
| CC(c1ccccc1)N(C)C(=O)CN1CCN(S(=O)(=O)c2ccc3c(c2)OCCCO3)CC1 (stereo not drawn) | inconclusive: 31.6 µM [inhibitor, single point] |
| CC(C)(C)S(=O)N1Cc2cc(C(=O)NCC(F)(F)F)nc(-c3cccc(-c4cccc(F)c4)c3)c2[C@@H]1CCO (stereo partly drawn) | inconclusive: 6.31 µM [inhibitor, partial curve, poor fit] |
| CCCNC(=S)NNC(=O)c1cc(C2CC2)nc2ccccc12 | inactive |
| O=C(O)CC/C(=N\Nc1ccc(S(=O)(=O)N2CCCC2)cc1[N+](=O)[O-])c1cccs1 | inactive |
| CCOc1ccccc1-n1c(SCC(=O)NC2CCCC2)nnc1-c1ccoc1C | inconclusive: 12.6 µM [inhibitor, partial curve, poor fit] |
| Cc1cc(C(=O)NCc2cccc(Cl)c2)c2ccccc2n1 | inconclusive: 7.94 µM [inhibitor, single point] |
| COc1ccc(-c2cn3c(C)c(C(=O)NC(C)(C)C)sc3n2)cc1 | inconclusive: 8.91 µM [inhibitor, partial curve, poor fit] |
| CCOc1ccccc1NC(=O)CCS(=O)(=O)c1cccs1 | inactive |
| COc1ccc(OCc2nc3ccccc3n2Cc2ccccc2Cl)cc1 | inactive |
| O=C(Nc1ccccc1)C(c1ccccc1)c1ccccc1 | inconclusive: 1.58 µM [inhibitor, full curve, poor fit] |
| CN1C2Cc3c(n(C)c4ccccc34)C1CC=C2CO (stereo not drawn) | inactive |
| COc1ccc2c3c(ccc2c1)C(=O)/C(=C/O)CC3 | inactive |
| COc1ccc(NC(=O)CN(C)C(=O)CSc2ccc(Br)cc2)cc1 | inconclusive: 22.4 µM [inhibitor, partial curve] |
| COc1cccc(-c2cn3nc4c(nc3n2)CCCC4)c1 | active: 2.51 µM |
| CCOC(=O)[C@]12CCC=C1N(Cc1cccc3ccccc13)C(=O)[C@H](CC(=O)NCc1ccc(OC)c(OC)c1)C2 | inconclusive: 7.08 µM [inhibitor, partial curve, poor fit] |
| COc1ccc(-c2noc(CCC(=O)N3CCN(c4cc(C)ccc4C)CC3)n2)cc1 | inconclusive: 31.6 µM [inhibitor, single point] |
| Cc1sc(NC(=O)c2ccco2)c(C(c2ccccc2)N2CCC(C)CC2)c1C (stereo not drawn) | active: 6.31 µM |

| Structure (SMILES) | Potency |
| --- | --- |
| O=C1/C(=C/N(C(=O)c2ccco2)c2ccc(Cl)cc2)Sc2ccccc21 | inconclusive: 20 µM [inhibitor, single point] |
| Cc1cccc(NS(=O)(=O)c2cccc(C(=O)N3CCCC(C(F)(F)F)C3)c2)c1 (stereo not drawn) | inconclusive: 22.4 µM [inhibitor, single point] |
| COc1ccc(CCNC(=O)c2ccc(CN3CCC(Cc4ccccc4)CC3)cc2)cc1OC | inactive |
| CCOc1cc(C(=O)OCc2cc(=O)n3nc(CC)sc3n2)cc(OCC)c1OCC | inactive |
| Cc1ccc(N2CC(C(=O)Nc3ccc4c(c3)OCCO4)CC2=O)cc1C (stereo not drawn) | inconclusive: 28.2 µM [inhibitor, single point] |
| CCOC(=O)C1=CCC(c2ccccc2C)N(S(=O)(=O)c2ccc(C)cc2)C1 (stereo not drawn) | inconclusive: 28.2 µM [inhibitor, single point] |
| COc1cccc(C(O)c2nc(-c3cccc4cccnc34)cs2)c1 (stereo not drawn) | inconclusive: 28.2 µM [inhibitor, single point] |
| CC(C)C(C(=O)NCc1ccco1)N(C(=O)CNS(=O)(=O)c1ccc(Cl)cc1)C1CCCC1 (stereo not drawn) | inconclusive: 12.6 µM [inhibitor, single point] |
| CCN1CCc2nc3sc(C(=O)Nc4cccc(Cl)c4C)c(N)c3cc2C1 | inconclusive: 2.24 µM [inhibitor, full curve, poor fit] |
| COC(=O)C1(c2ccccc2)NC(c2cccs2)C2C(=O)N(C)C(=O)C21 (stereo not drawn) | inconclusive: 28.2 µM [inhibitor, single point] |
| CC1CCCC(C)N1C(=O)/C=C/c1ccc(S(=O)(=O)N2CCOCC2)cc1 (stereo not drawn) | inconclusive: 11.2 µM [inhibitor, partial curve, poor fit] |
| COCCN1CCCC(CNCc2cn(C)nc2-c2ccc(Oc3ccccc3)cc2)C1 (stereo not drawn) | inconclusive: 7.08 µM [inhibitor, partial curve, poor fit] |
| COc1ccc2nc(SCC(=O)NC3CCCC3)c(C)cc2c1 | inconclusive: 1.41 µM [inhibitor, full curve, poor fit] |
| Cc1ccc(SCCNC(=O)CN(c2ccccc2)S(=O)(=O)N(C)C)cc1 | inactive |
| CC(C)CC(=O)Nc1cccc(-c2nc3ccccc3[nH]2)c1 | inconclusive: 11.2 µM [inhibitor, single point] and inconclusive: 17.8 µM [inhibitor, partial curve, poor fit] |
| CC1(C)C(=Cc2ccccc2)C(=O)c2ccccc21 | inconclusive: 10 µM [inhibitor, single point] |
| CC(C)c1ccc(NC(=O)CCNC(=O)N2CC(=O)Nc3ccccc32)cc1 | inconclusive: 3.16 µM [inhibitor, full curve, poor fit] |
| CCCCc1ccc(NC(=S)NCCc2ccc(F)cc2)cc1 | inconclusive: 28.2 µM [inhibitor, single point] |
| CCC1=Nc2cc(C(=O)NCCCOC)ccc2Sc2ccc(Br)cc21 | inconclusive: 1 µM [inhibitor, full curve, poor fit] |
| Cc1ccc(-c2nn(-c3ccccc3)cc2C=C2SC(=S)N(CCS(=O)(=O)O)C2=O)cc1 | inconclusive: 28.2 µM [inhibitor, single point] |
| COc1cccc(Cn2cnc3c(NS(=O)(=O)c4cc(Cl)ccc4Cl)c(C)c(C)cc32)c1 | inconclusive: 2.51 µM [inhibitor, partial curve] |
